Experimental data taken from PubChem BioAssay (NCI).
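Test compounds were applied to cells in 96-well plates for 48 hours at 5 doses. At the GI50, growth is halved.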 Certain results were filed several times, with different values. The other results are left out here. An entry can have further records. Records of one sample usually come from different ranges of test concentrations, which the source does not state; some values may only mark the edge of a range.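 TGI: concentration producing complete growth inhibition.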

Assays:
Experiment in all cases: DTP human tumour cell line panel, 48 h
HCT-116 colon = system: HCT-116 colon
OVCAR-8 ovarian = system: OVCAR-8 ovarian
NCI-H23 lung = system: NCI-H23 lung
NCI/ADR-RES ovarian = system: NCI/ADR-RES ovarian
HCC-2998 colon = system: HCC-2998 colon
SF-268 CNS = system: SF-268 CNS
HT29 colon = system: HT29 colon
KM12 colon = system: KM12 colon
LOX IMVI melanoma = system: LOX IMVI melanoma
NCI-H522 lung = system: NCI-H522 lung
KM20L2 colon = system: KM20L2 colon
RXF 393 renal = system: RXF 393 renal
NCI-H460 lung = system: NCI-H460 lung
OVCAR-5 ovarian = system: OVCAR-5 ovarian
LXFL 529 NSCLC = system: LXFL 529 NSCLC
SW-620 colon = system: SW-620 colon
COLO 205 colon = system: COLO 205 colon
CCRF-CEM leukemia = system: CCRF-CEM leukemia
SNB-75 CNS = system: SNB-75 CNS
SR leukemia = system: SR leukemia
CAKI-1 renal = system: CAKI-1 renal

**Q.** Which TGI (HCT-116 colon) does the source give for `CCOC(=O)Oc1cc2c(c(OC)c1OC)-c1ccc(SC)c(=O)cc1C(NC(=O)C(F)(F)F)CC2` (centres undefined) here?
**A.** Its TGI is 7.1 µM and 11.1 nM.

**Q.** What about the TGI (OVCAR-8 ovarian) of the same molecule?
**A.** Its TGI is 118 nM and > 100 µM.

**Q.** And the TGI (NCI-H23 lung)?
**A.** Its TGI is 3.68 nM and > 100 µM.

**Q.** What about the TGI (NCI/ADR-RES ovarian) of the same molecule?
**A.** Its TGI is 32.7 nM and 1.32 µM.

**Q.** And the TGI (HCC-2998 colon)?
**A.** The TGI was 2 µM and 48.2 nM.

**Q.** What about the TGI (SF-268 CNS) of the same molecule?
**A.** Its TGI is 6.72 µM and > 100 µM.

**Q.** What about the TGI (HT29 colon) of the same molecule?
**A.** Its TGI is 5.76 nM and 13.4 µM.

**Q.** And the TGI (KM12 colon)?
**A.** Its TGI is 438 nM and 19.6 µM.

**Q.** And the TGI (LOX IMVI melanoma)?
**A.** The TGI was 1.54 µM and 18.9 µM.

**Q.** Which results are given for `CO/C1=C\C(C)=C\C(C)C(O)C(C)C/C(C)=C/C=C/C(OC)C(C(C)C(O)C(C)C2(O)CC(O)C(C)C(C(C)C)O2)OC1=O` (centres undefined)?
**A.** TGI (NCI-H522 lung): 24.3 nM and 6.69 µM; TGI (HCT-116 colon): 5.8 nM and 13 µM; TGI (KM20L2 colon): 53.8 nM and 4.15 µM; TGI (RXF 393 renal): 82.8 nM and 26.3 µM; TGI (NCI-H460 lung): 22.9 nM and 14.4 µM; TGI (OVCAR-5 ovarian): 25.4 nM and 20.2 µM; TGI (LXFL 529 NSCLC): 6.45 nM and 12.1 µM; TGI (HT29 colon): 42.1 nM and 1.49 µM; TGI (SW-620 colon): 41.3 nM and 15.5 µM; TGI (COLO 205 colon): 52.7 nM and 11.5 µM; TGI (CCRF-CEM leukemia): 64.7 nM and 16.8 µM; TGI (SNB-75 CNS): 64.6 nM and 15 µM; TGI (SR leukemia): 41.4 nM and 15.1 µM

**Q.** How did the GI50 (CAKI-1 renal) turn out when `CCOC(=O)C(Cc1c[nH]c2ccc(N(CCCl)CCCl)cc12)(NC(C)=O)C(=O)OCC` was run?
**A.** The GI50 was 7.02 µM and 217 nM.

**Q.** And the TGI (CAKI-1 renal)?
**A.** The TGI was 41.3 µM and 705 nM.
